From the CheMixHub viscosity set
Further values from the same series stand in other lists.

Assay: xn = mol fraction of the nth substance listed
Conditions: 101 kPa

OCC(O)CO + O
viscosity [mPa·s]
Conditions | 295.65 K | 298.15 K
x1 = 0.00777 | – | 0.981
x1 = 0.0152 | – | 1.073
x1 = 0.02262 | – | 1.172
x1 = 0.03118 | – | 1.295
x1 = 0.03958 | – | 1.428
x1 = 0.04604 | – | 1.53
x1 = 0.05683 | – | 1.731
x1 = 0.07063 | – | 2.007
x1 = 0.07885 | – | 2.191
x1 = 0.08828 | – | 2.42
x1 = 0.1003 | – | 2.741
x1 = 0.1005 | – | 2.523
x1 = 0.1112 | – | 3.054
x1 = 0.1223 | – | 3.407
x1 = 0.1369 | – | 3.927
x1 = 0.154 | – | 4.611
x1 = 0.171 | – | 5.409
x1 = 0.1874 | – | 6.266
x1 = 0.1967 | – | 6.804
x1 = 0.2026 | – | 6.506
x1 = 0.2067 | – | 7.447
x1 = 0.2178 | – | 8.184
x1 = 0.225 | – | 8.756
x1 = 0.2378 | – | 9.731
x1 = 0.2459 | – | 10.47
x1 = 0.2622 | – | 11.96
x1 = 0.2636 | – | 12.05
x1 = 0.281 | – | 9.453
x1 = 0.2837 | 15.86 | 14.12
x1 = 0.3085 | – | 11.98
x1 = 0.3153 | 20.53 | 18.21
x1 = 0.3391 | 24.98 | 22.03
x1 = 0.365 | 30.57 | 26.81
x1 = 0.3785 | 33.8 | 29.61
x1 = 0.399 | – | 24.31
x1 = 0.4055 | 41.41 | 36.08
x1 = 0.4294 | 49.52 | 42.85
x1 = 0.452 | 60.08 | 51.9
x1 = 0.485 | 72.75 | 62.53
x1 = 0.5002 | – | 62.82
x1 = 0.5117 | 87.23 | 74.5
x1 = 0.5472 | 110.2 | 93.52
x1 = 0.5575 | 117.9 | 99.86
x1 = 0.5867 | 143.4 | 120.9
x1 = 0.6006 | – | 123.6
x1 = 0.6349 | 191.5 | 160.6
x1 = 0.6493 | – | 161
x1 = 0.659 | 220.5 | 183.8
x1 = 0.6917 | – | 202.1
x1 = 0.6978 | 276.5 | 229.2
x1 = 0.7166 | 306.8 | 254.7
x1 = 0.7442 | 359.9 | 295.9
x1 = 0.7646 | 390.7 | 321.5
x1 = 0.7947 | 457.6 | 374.9
x1 = 0.7958 | – | 364.5
x1 = 0.8114 | 499.5 | –
x1 = 0.8274 | 542.1 | –
x1 = 0.8428 | 582.9 | –
x1 = 0.859 | 629.6 | –
x1 = 0.9082 | 789.8 | –
x1 = 0.9434 | 926 | –
x2 = 0.0171 | 1102 | –
